In PubChem BioAssay AID1346428 (National Center for Advancing Translational Sciences (NCATS), 2018):
About 1,200 (2.5%) of roughly 48,000 compounds were called active. Not shown: some 2% with an inconclusive outcome.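 How the source made its calls: active means activation of at least 60% and not above a set upper limit (about 1 call in 100 departs from these limits); inconclusive means activation of 40% to 60%, or above that upper limit; inactive means activation under 40%.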 The list shows a part of the results.

Molecular target: Probable G-protein coupled receptor 32 (Homo sapiens) (UniProt O75388)
Test: qHTS for Agonists of Human Resolvin D1 Receptor DRV1; further: 0% is about no effect
Settings: CHO-K1 GPR32 beta-arrestin PathHunter luminescence, 90 min; at 76.9 µM; active compounds read high; zero percent set by DMSO-only wells
Method in brief: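 CHO-K1 cells stably expressing ProLink-tagged GPR32 and Enzyme Activator-tagged beta-arrestin were seeded at 2,500 cells/well overnight, exposed to compounds for 90 min at 37 °C, then read by beta-Gal complementation chemiluminescence after 1 h detection reagent.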

Chain of UniProt O75388 (O75388 whole entry, looked up): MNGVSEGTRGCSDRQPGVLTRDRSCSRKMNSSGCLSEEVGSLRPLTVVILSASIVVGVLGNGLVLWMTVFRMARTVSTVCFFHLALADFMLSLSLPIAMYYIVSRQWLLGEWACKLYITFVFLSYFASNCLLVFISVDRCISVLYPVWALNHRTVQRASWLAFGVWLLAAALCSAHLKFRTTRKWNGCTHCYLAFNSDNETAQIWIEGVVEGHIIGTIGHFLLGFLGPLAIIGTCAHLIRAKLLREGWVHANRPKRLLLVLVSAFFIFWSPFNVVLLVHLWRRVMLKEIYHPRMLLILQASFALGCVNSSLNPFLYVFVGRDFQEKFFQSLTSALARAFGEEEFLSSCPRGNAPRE

SMILES | activation
O=C(CCn1c(=O)c2sccc2n(Cc2ccc(F)cc2)c1=O)NCc1ccc2c(c1)OCO2 | inactive: -4.7%
COc1cccc(Nc2nnc(-c3cc4ccc(O)cc4oc3=O)s2)c1 | inactive: -7.07%
CCOc1ccc(NC(=O)Cn2c(=O)n(CCc3ccccc3)c(=O)c3c4c(sc32)CCCC4)cc1 | inactive: -4.69%
Cc1ccc(NC(=O)CC2Oc3ccc(C)cc3NC2=O)c(C)c1 (stereo not given) | inactive: 0.244%
Cc1ccc(CSc2c(C)cnc3c2c(=O)n(C)c(=O)n3C)cc1 | inactive: -2.57%
CC(=O)c1ccc(NC(=O)Cn2nc(C(F)(F)F)c3c2CCC3)cc1 | inactive: -8.48%
Cc1ccc(Cl)cc1N1CCN(C(=O)Cn2cnc3onc(-c4ccc(F)cc4)c3c2=O)CC1 | inactive: 3.53%
CCc1nc2ccc(C(=O)N3CCN(c4ccccc4F)CC3)cc2nc1CC | inactive: -34%
COc1cccc2sc(NC(=O)c3ccc4c(c3)OCCO4)nc12 | inactive: 44.8%
CCOC(=O)C1=C(CN2CCN(c3ccc(Cl)cc3)CC2)NC(=O)NC1c1ccc(OC)cc1 (stereo not given) | inactive: -26%
O=C(Cn1ncc2c3ccccc3n(Cc3ccccc3)c2c1=O)NCc1cccs1 | inactive: -18.1%
CCN(CC)CCNC(=O)CCn1c(=O)c2cccn2c2cccnc21 | inactive: -10.6%
Cc1ccc2nc(-c3ccc(NC(=O)Cc4ccccc4)cc3)sc2c1 | inactive: 16.1%
CCCCNC(=O)CCC1N=C2c3ccccc3N=C(SCC(=O)NCCc3ccc(OC)c(OC)c3)N2C1=O (stereo not given) | inactive: -17.2%
CCc1ccc(NC(=O)CCn2c(-c3ccc(OC)cc3)cc(C(C)=O)c2C)cc1 | inactive: -28.6%
COc1ccc(C2C=C(c3ccc(F)cc3)Nc3nc(-c4ccc(Cl)cc4)nn32)cc1 (stereo not given) | inactive: 10.1%
CC1CCN(c2nc3c(S(=O)(=O)c4ccccc4)nnn3c3ccc(Cl)cc23)CC1 | inactive: -20.8%
COc1ccc(NC(=O)c2ccc3c(c2)N(Cc2cccc(Cl)c2)C(=O)c2ccccc2S3=O)cc1Cl (stereo not given) | inactive: -17.9%
COc1ccccc1NC(=O)NCCCN1CCN(c2ccc(F)cc2)CC1 | inactive: -10.4%
O=C(c1cnn(-c2cccc(F)c2)c1-n1cccc1)N1CCN(c2ccccc2F)CC1 | inactive: -4.22%
Cc1c(C)n(Cc2ccccc2)c2ccc(C(=O)NCc3ccccc3F)cc12 | inactive: -14%
COc1ccc(-n2nc3c(N4CCC(C(=O)NCc5cccc(F)c5)CC4)nnc(C)c3c2C)cc1 | inactive: -5.04%
CC(=O)c1cccc(NC(=O)CN2C(=O)c3ccccc3Sc3ncccc32)c1 | active: 71.5%
CCCN1CCN(CCCNC(=O)c2ccc3c(c2)sc2nc(-c4ccc(OC)cc4)cn23)CC1 | inactive: 4.85%
COc1ccc(C(=O)Nc2cccc(-c3cn4ccsc4n3)c2)cc1OC | inactive: 9.6%
CCS(=O)(=O)c1ccc(OC)c(C(=O)OC)c1 | inactive: 14%
Cc1ccc2c(CNCC(C)c3ccccc3)c(C(=O)O)n(Cc3ccccc3C)c2c1 (stereo not given) | inactive: 7.71%
CC1=C(C(=O)NCc2ccccc2Cl)C2(CCCCCC2)OC1=O | inactive: -21.6%

SMILES | activation
Cn1c(SCC(=O)N2CCOCC2)ncc(C(=O)Nc2ccccc2)c1=O | inactive: -10.7%
CCOC(=O)C1CCN(C(=O)Cn2nc(C)n3c(cc4sccc43)c2=O)CC1 | inactive: 18.9%
Cc1ccccc1Cn1c(CN2CCC(C(=O)NCc3cccnc3)CC2)cc2ccccc21 | inactive: 5.8%
COC(=O)COc1ccc(C2C(C(=O)OC)=C(C)NC3=C2C(=O)c2ccccc23)cc1OC (stereo not given) | inactive: -81.3%
Cn1nnnc1SCCCNCc1ccc(Cl)cc1 | inactive: 3.16%
COC(=O)c1cc(NC(=O)CCc2c(C)nc3c(c(C)nn3C(C)(C)C)c2C)cc(C(=O)OC)c1 | inactive: -12.8%
CC(C)c1ccc(C2Sc3ccccc3NC3=C2C(=O)c2ccccc23)cc1 (stereo not given) | inactive: -59.6%
Cc1ccc2c(c1)cc1c(=O)n(Cc3cccc(Cl)c3)nc(C)n12 | inactive: -12.7%
Cc1cc(C)c2c(c1)NC(=O)C2(O)c1c[nH]c2ccccc12 (stereo not given) | inactive: 8.96%
COc1ccc(CCNC(=O)Cc2c(C)c3cc4c(C(C)(C)C)coc4c(C)c3oc2=O)cc1OC | inactive: -13.1%
Cc1ccc(CN2COc3ccc4c(C)cc(=O)oc4c3C2)cc1 | inactive: 5.01%
Cc1nc(N2CCOCC2)c2c(C(=O)N3CCN(c4ccccc4F)CC3)c(C)oc2n1 | inactive: -6.74%
O=C(Nc1cc(Cl)ccc1Cl)c1cc(S(=O)(=O)NCCc2ccccc2)ccc1F | inactive: -26.4%
O=C(NCc1ccc(Cl)cc1)c1cc2c(s1)-c1ccccc1SC2 | inactive: -17.1%
COc1ccc(-c2nc3c(c(SCC(=O)Nc4cccc(O)c4)n2)Cc2c(CO)cnc(C)c2O3)cc1 | inactive: -4.63%
CC1CCc2onc(C(=O)N3CCN(c4ccccc4)CC3)c2C1 (stereo not given) | inactive: -23.5%
O=C(COc1ccccc1F)Nc1ccccc1C(=O)OCc1cc(=O)n2nc(C3CC3)sc2n1 | inactive: -3.73%
Cc1ccc(C(=O)N(Cc2ccco2)Cc2sccc2C)cc1 | inactive: -17.2%
COc1ccc(-c2c(C#N)c(SCC(=O)Nc3cccc(Cl)c3)nc(C)c2C(=O)Nc2ccccc2)cc1OC | inactive: -19.7%
CCc1ccccc1NC(=O)Cn1c(=O)n(Cc2ccco2)c(=O)c2ccccc21 | inactive: 12.9%
COc1cc(OC)cc(C(=O)Nc2cc3c(cc2N2CCCCC2)n(C)c(=O)n3C)c1 | inactive: -3.92%
COc1ccc(CNC(=O)c2cnc3sc(N4CCC(C)CC4)nn3c2=O)c(OC)c1 | inactive: 28.2%
CCCCCCCC(=O)OCC(O)CO (stereo not given) | inactive: 2.14%
c1ccc(-c2nc[nH]c2-c2ccccc2)cc1 | inactive: 15.3%
Cc1ccc(N2C(=O)CC(c3ccccc3F)C3=C2COC3=O)cc1Cl (stereo not given) | inactive: -15.5%
CCc1ccc(NC(=O)C2CCN(c3nn4cc(-c5ccc(OC)cc5)nc4s3)CC2)cc1 | inactive: -1.67%
CCN(CC)C(=O)Cn1c(=O)n(-c2ccc(Cl)c(Cl)c2)c(=O)c2c(C)c(C(=O)N(CC)CC)sc21 | inactive: -10.9%
